Among the data in paper PMC12491506 are binding values, retold here.

Results are given in words; binding and its absence hold for the method and conditions named. Binding seen in cells or lysates may run through a third protein. Some entries that bind do so weakly or less than the wild type. Sequences can lack the tags named with a protein.

The target of experiment [1] is T1, GFP-LRMDA (human), A0A087.
T1 chain: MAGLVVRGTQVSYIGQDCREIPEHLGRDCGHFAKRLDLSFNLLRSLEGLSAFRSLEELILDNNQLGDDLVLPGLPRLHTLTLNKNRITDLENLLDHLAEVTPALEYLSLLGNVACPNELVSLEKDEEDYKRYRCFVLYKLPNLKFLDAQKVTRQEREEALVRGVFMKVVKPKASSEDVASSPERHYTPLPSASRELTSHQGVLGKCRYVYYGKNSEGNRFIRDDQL
Put plainly: co-IP; GFP-LRMDA pull-down performed in MNT1 cells (Supplementary Fig. 1H). The settings on record: remark: other sources report otherwise.

A further experiment has as its target T2, GFP-LRMDA F145D (human).
T2 sequence: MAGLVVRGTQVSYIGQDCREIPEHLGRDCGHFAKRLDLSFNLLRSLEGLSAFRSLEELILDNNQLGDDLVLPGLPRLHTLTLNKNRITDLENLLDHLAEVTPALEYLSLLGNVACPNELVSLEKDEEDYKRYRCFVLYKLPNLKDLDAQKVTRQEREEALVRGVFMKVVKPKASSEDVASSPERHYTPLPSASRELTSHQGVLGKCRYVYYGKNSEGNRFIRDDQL
The description is as above.

A further experiment has as its target T3, GFP-RAB32 (UniProt Q13637).
T3 sequence: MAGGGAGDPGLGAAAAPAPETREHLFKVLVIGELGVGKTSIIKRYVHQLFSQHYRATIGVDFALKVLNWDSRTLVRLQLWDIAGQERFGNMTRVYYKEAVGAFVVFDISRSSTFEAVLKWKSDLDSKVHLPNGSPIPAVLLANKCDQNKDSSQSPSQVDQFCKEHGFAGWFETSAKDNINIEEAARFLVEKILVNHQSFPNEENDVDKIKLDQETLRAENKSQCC
Put plainly: co-IP; GFP-trap from lysates of HEK293T cells with mCherry-LRMDA and VPS35L-GFP or GFP-RAB32 (wild type or mutants), blots for mCherry-LRMDA and Retriever (Figs 2E, 3C, 3D).

The target of the next experiment is T4, GFP-RAB32 Q85L (UniProt Q13637).
T4 sequence: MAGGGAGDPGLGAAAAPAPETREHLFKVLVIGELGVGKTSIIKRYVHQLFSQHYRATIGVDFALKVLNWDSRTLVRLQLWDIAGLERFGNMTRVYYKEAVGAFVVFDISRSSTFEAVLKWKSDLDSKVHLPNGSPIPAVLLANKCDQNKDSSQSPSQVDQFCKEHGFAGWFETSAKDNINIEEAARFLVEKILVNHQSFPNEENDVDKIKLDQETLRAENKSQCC
The description is as above.

For a further experiment, the target named is T5, GFP-RAB32 T39N (UniProt Q13637).
T5 sequence: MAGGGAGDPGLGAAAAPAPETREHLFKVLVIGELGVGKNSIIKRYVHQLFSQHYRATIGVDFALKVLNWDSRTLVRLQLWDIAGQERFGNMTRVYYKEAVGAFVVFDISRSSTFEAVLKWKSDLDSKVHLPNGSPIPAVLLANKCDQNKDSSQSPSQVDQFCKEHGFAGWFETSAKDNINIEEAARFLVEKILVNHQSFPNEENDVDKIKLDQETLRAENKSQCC
Described as above.

B1: RAB38 (endogenous, MNT1 cells), P57729 1-211 (protein)
chain: MQAPHKEHLYKLLVIGDLGVGKTSIIKRYVHQNFSSHYRATIGVDFALKVLHWDPETVVRLQLWDIAGQERFGNMTRVYYREAMGAFIVFDVTRPATFEAVAKWKNDLDSKLSLPNGKPVSVVLLANKCDQGKDVLMNNGLKMDQFCKEHGFVGWFETSAKENINIDEASRCLVKHILANECDLMESIEPDVVKPHLTSTKVASCSGCAKS
Take B1: in experiment [1], the binding result is given as “binds”.

B2: RAB38 (endogenous, MNT1 cells) (protein, UniProt P57729 1-211)
chain: MQAPHKEHLYKLLVIGDLGVGKTSIIKRYVHQNFSSHYRATIGVDFALKVLHWDPETVVRLQLWDIAGQERFGNMTRVYYREAMGAFIVFDVTRPATFEAVAKWKNDLDSKLSLPNGKPVSVVLLANKCDQGKDVLMNNGLKMDQFCKEHGFVGWFETSAKENINIDEASRCLVKHILANECDLMESIEPDVVKPHLTSTKVASCSGCAKS
With B2, the binding entry in the experiment with GFP-LRMDA F145D (human) is “no binding”.

B3: mCherry-LRMDA (protein, UniProt A0A087WWI0 1-226)
chain: MAGLVVRGTQVSYIGQDCREIPEHLGRDCGHFAKRLDLSFNLLRSLEGLSAFRSLEELILDNNQLGDDLVLPGLPRLHTLTLNKNRITDLENLLDHLAEVTPALEYLSLLGNVACPNELVSLEKDEEDYKRYRCFVLYKLPNLKFLDAQKVTRQEREEALVRGVFMKVVKPKASSEDVASSPERHYTPLPSASRELTSHQGVLGKCRYVYYGKNSEGNRFIRDDQL
Take B3: the binding entry with GFP-RAB32 was “binds”; with GFP-RAB32 Q85L, “binds”; with GFP-RAB32 T39N, “no binding”.
